Measurements: the supplement of paper PMC8728848
The other results are listed elsewhere or left out.

Experiments:
Assay in all cases: glycan array binding signal (z-score within array); higher = stronger binding
Details in all cases: glycan notation: IUPAC condensed, linker removed
[1] = molecular target: Fuc(a1-3)[Gal(b1-4)]GlcNAc(b1-3)Gal(b1-4)[Fuc(a1-3)]GlcNAc
Method in brief: (§1)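 Glycan array data came from 3228 arrays in the Consortium for Functional Glycomics database, and only arrays with an available protein sequence were kept. Glycan names were put into IUPAC-condensed notation, and columns mapping to the same glycan were averaged. The binding signal is a within-array Z-score, averaged across arrays of one protein sequence run at different concentrations or buffers and across linkers. A negative Z-score can be read as non-binding.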

[2] = molecular target: Fuc(a1-3)[Gal(b1-4)]GlcNAc(b1-3)Gal(b1-4)[Fuc(a1-3)]GlcNAc(b1-3)Gal(b1-4)[Fuc(a1-3)]GlcNAc
Method in brief: as §1

[3] = molecular target: Fuc(a1-3)[Gal(b1-4)]GlcNAc(b1-3)GalNAc
Method in brief: as §1

[4] = molecular target: Fuc(a1-3)[Gal(b1-4)]GlcNAc(b1-6)GalNAc
Method in brief: as §1

[5] = molecular target: Fuc(a1-3)[Gal(b1-4)]GlcNAc(b1-6)[Gal(b1-3)GlcNAc(b1-3)]Gal(b1-4)Glc
Method in brief: as §1

[6] = molecular target: Fuc(a1-3)[Gal(b1-4)]GlcNAc6S
Method in brief: as §1

[7] = molecular target: Fuc(a1-3)[Gal3S(b1-4)]Glc
Method in brief: as §1

[8] = molecular target: Fuc(a1-3)[Gal3S(b1-4)]GlcNAc
Method in brief: as §1

[9] = molecular target: Fuc(a1-3)[Gal3S(b1-4)]GlcNAc6S
Method in brief: as §1

[10] = molecular target: Fuc(a1-3)[GalNAc(b1-4)]GlcNAc
Method in brief: as §1

[11] = molecular target: Fuc(a1-3)[GalNAc(b1-4)]GlcNAc6S
Method in brief: as §1

Fuc(a1-4)GlcNAc = molecular target: Fuc(a1-4)GlcNAc
Method in brief: as §1

Fuc(b1-3)GlcNAc = molecular target: Fuc(b1-3)GlcNAc
Method in brief: as §1

Gal(a1-2)Gal = molecular target: Gal(a1-2)Gal
Method in brief: as §1

Gal(a1-3)Gal = molecular target: Gal(a1-3)Gal
Method in brief: as §1

Gal(a1-3)Gal(b1-3)GlcNAc = molecular target: Gal(a1-3)Gal(b1-3)GlcNAc
Method in brief: as §1

[12] = molecular target: Gal(a1-3)Gal(b1-3)GlcNAc(b1-2)Man
Method in brief: as §1

[13] = molecular target: Gal(a1-3)Gal(b1-3)GlcNAc(b1-2)Man(a1-3)[Gal(a1-3)Gal(b1-3)GlcNAc(b1-2)Man(a1-6)]Man(b1-4)GlcNAc(b1-4)GlcNAc
Method in brief: as §1

[14] = molecular target: Gal(a1-3)Gal(b1-3)GlcNAc(b1-3)GalNAc
Method in brief: as §1

[15] = molecular target: Gal(a1-3)Gal(b1-3)GlcNAc(b1-6)GalNAc
Method in brief: as §1

[16] = molecular target: Gal(a1-3)Gal(b1-3)[Fuc(a1-4)]GlcNAc(b1-2)Man(a1-3)[Gal(a1-3)Gal(b1-3)[Fuc(a1-4)]GlcNAc(b1-2)Man(a1-6)]Man(b1-4)GlcNAc(b1-4)GlcNAc
Method in brief: as §1

Gal(a1-3)Gal(b1-4)Glc = molecular target: Gal(a1-3)Gal(b1-4)Glc
Method in brief: as §1

Gal(a1-3)Gal(b1-4)GlcNAc = molecular target: Gal(a1-3)Gal(b1-4)GlcNAc
Method in brief: as §1

[17] = molecular target: Gal(a1-3)Gal(b1-4)GlcNAc(b1-2)Man
Method in brief: as §1

[18] = molecular target: Gal(a1-3)Gal(b1-4)GlcNAc(b1-2)Man(a1-3)[Gal(a1-3)Gal(b1-4)GlcNAc(b1-2)Man(a1-6)]Man(b1-4)GlcNAc(b1-4)GlcNAc
Method in brief: as §1

[19] = molecular target: Gal(a1-3)Gal(b1-4)GlcNAc(b1-3)GalNAc
Method in brief: as §1

[20] = molecular target: Gal(a1-3)Gal(b1-4)GlcNAc(b1-6)GalNAc
Method in brief: as §1

[21] = molecular target: Gal(a1-3)Gal(b1-4)[Fuc(a1-3)]GlcNAc
Method in brief: as §1

[22] = molecular target: Gal(a1-3)Gal(b1-4)[Fuc(a1-3)]GlcNAc(b1-2)Man(a1-3)[Gal(a1-3)Gal(b1-4)[Fuc(a1-3)]GlcNAc(b1-2)Man(a1-6)]Man(b1-4)GlcNAc(b1-4)GlcNAc
Method in brief: as §1

Gal(a1-3)GalNAc = molecular target: Gal(a1-3)GalNAc
Method in brief: as §1

[23] = molecular target: Gal(a1-3)[Gal(a1-4)]Gal(b1-4)GlcNAc
Method in brief: as §1

[24] = molecular target: Gal(a1-4)Gal(b1-3)GlcNAc(b1-2)Man(a1-3)[Gal(a1-4)Gal(b1-3)GlcNAc(b1-2)Man(a1-6)]Man(b1-4)GlcNAc(b1-4)GlcNAc
Method in brief: as §1

Gal(a1-4)Gal(b1-4)Glc = molecular target: Gal(a1-4)Gal(b1-4)Glc
Method in brief: as §1

Gal(a1-4)Gal(b1-4)GlcNAc = molecular target: Gal(a1-4)Gal(b1-4)GlcNAc
Method in brief: as §1

[25] = molecular target: Gal(a1-4)Gal(b1-4)GlcNAc(b1-2)Man(a1-3)[Gal(a1-4)Gal(b1-4)GlcNAc(b1-2)Man(a1-6)]Man(b1-4)GlcNAc(b1-4)GlcNAc
Method in brief: as §1

[26] = molecular target: Gal(a1-4)Gal(b1-4)GlcNAc(b1-3)Gal(b1-4)Glc
Method in brief: as §1

Gal(a1-4)GlcNAc = molecular target: Gal(a1-4)GlcNAc
Method in brief: as §1

Gal(a1-6)Glc = molecular target: Gal(a1-6)Glc
Method in brief: as §1

B1: GS14009A-pdi-495-27-495 (Parabacteroides distasonis) (protein)
chain: FEEVNTDPDSPTDVPTTNLLAYSLYYTSYRLYDRWFAMDEPMTFCGYASKMTYIDESRYNFRTGVQDTNWEYLYRILNNLKDIEKRATFNETPNMLNVSKVMQVHLMQVATDRWRDVPYTDAAKMTDGILQPKYDKQEDIYPGLLATLKEAADGFADGGSDDLGEGDLLFGGDIEKWQRYCNSMRLRLAMRISEVSPALAKETVEEVMGNPTKYPIMESNDDNAFFWWIGTDPNYYEPMADGYRTRKTEYCAADVIVDHMNTREDPRRSSYFQPTKESVEAGEPKYVGYTIGAKANAVASKYSIWGARFFTDLAGFSPYMRVAEPWFCVAEASMLGWNTGISAEDAYNKAVTYSMEENSVSAEDIADYLANAGKFTNDKKQIYYEEWVAMFKQGMEGWSLYRRTGVPDNLYPAPGRPANYSNHNVPPFRSPYPDKERNLNNANCAPFDAEVVDNLWGKQMWWDTRTGVH
glycan array binding signal (z-score) [1]: 0.329
glycan array binding signal (z-score) [2]: 0.445
glycan array binding signal (z-score) [3]: -0.506
glycan array binding signal (z-score) [4]: 0.625
glycan array binding signal (z-score) [5]: -0.416
glycan array binding signal (z-score) [6]: -0.674
glycan array binding signal (z-score) [7]: -0.379
glycan array binding signal (z-score) [8]: -0.762
glycan array binding signal (z-score) [9]: -0.259
glycan array binding signal (z-score) [10]: 0.496
glycan array binding signal (z-score) [11]: -0.018
glycan array binding signal (z-score) (Fuc(a1-4)GlcNAc): -0.404
glycan array binding signal (z-score) (Fuc(b1-3)GlcNAc): 0.704
glycan array binding signal (z-score) (Gal(a1-2)Gal): -0.76
glycan array binding signal (z-score) (Gal(a1-3)Gal): -0.238
glycan array binding signal (z-score) (Gal(a1-3)Gal(b1-3)GlcNAc): -0.255
glycan array binding signal (z-score) [12]: 0.597
glycan array binding signal (z-score) [13]: 0.338
glycan array binding signal (z-score) [14]: -0.183
glycan array binding signal (z-score) [15]: -0.003
glycan array binding signal (z-score) [16]: 0.794
glycan array binding signal (z-score) (Gal(a1-3)Gal(b1-4)Glc): -0.017
glycan array binding signal (z-score) (Gal(a1-3)Gal(b1-4)GlcNAc): -0.77
glycan array binding signal (z-score) [17]: -0.545
glycan array binding signal (z-score) [18]: 0.96
glycan array binding signal (z-score) [19]: -0.015
glycan array binding signal (z-score) [20]: -0.267
glycan array binding signal (z-score) [21]: 0.306
glycan array binding signal (z-score) [22]: 0.074
glycan array binding signal (z-score) (Gal(a1-3)GalNAc): -0.234
glycan array binding signal (z-score) [23]: -0.106
glycan array binding signal (z-score) [24]: 2.33
glycan array binding signal (z-score) (Gal(a1-4)Gal(b1-4)Glc): -0.144
glycan array binding signal (z-score) (Gal(a1-4)Gal(b1-4)GlcNAc): -0.256
glycan array binding signal (z-score) [25]: 2.23
glycan array binding signal (z-score) [26]: -0.352
glycan array binding signal (z-score) (Gal(a1-4)GlcNAc): -0.025
glycan array binding signal (z-score) (Gal(a1-6)Glc): -0.685
